# Laboratory results: the supplement of paper PMC12632987
# In all, about 4,500 sequences were measured (“median log2 fold change of GCK-ALFA target abundance (FLAG IP / Myc IP barcode read proportion)”: median about 0.078, lowest 2% from about -0.6 on). The list shows a part of the results.
# B1: GBRAP_184_5150 (protein)
# chain: TTLRRAIEAETVEEALAQAAEVFAEAKAAGAKLTLAVFAEGFSVEEVAELARGLKALADEAGLTDATIILEVEADEEEADRVLAAADAAGVRAVVALEEP
# B2: GBRAP_160_4272 (protein)
# chain: SPEREELIEDIEEDREEILELVDKISPEEVRNFAVTSLGSHLLEAIDLGLVTDEQEDELMEIVDELEKELKEAENASKEEIKKIITEHYDKAIEILKKAK
# B3: GBRAP_172_4998 (protein)
# chain: KVKKVLLVFEDASLEEIIEAVLEEARKAKEEGYDFIVIGVVATHPLSSEELEEALKEALEKENIIDFEVLAESVPAAELDAAAARMKAAVETEALNREEE
# B4: GBRAP_160_4832 (protein)
# chain: MEKVEEAKEFIREEIEEILEMMEGETTEERAAIVAVGFGEIIMYLEEKGVATDELEDFIVEKEDEVVATILANPDLTDEELEELLEEAEEELIAELEKVA
# B5: GBRAP_83_6948 (protein)
# chain: KEKLVVAANDDNVAEAVAIAEDLAKTGKYDVTLEFIGGVEAAEKLLKEVAKAWAKGVTFDVEVLLRGATEEEAEKIKAAFEKVAKAAGKDVKVEVHVIKP
# B6: GBRAP_52_6160 (protein)
# chain: AEARARAMADEILAAVRAGDEEKLDELLRRAAKELSQEELELMLAHIAEAVAGLTPAEAEAVVEAAIRFEDLAVEAGHDEELLSYQLARVAAAAYKQLQA
# B7: GBRAP_64_6490 (protein)
# chain: DEEIKKLLEELEEAVKELEKAVAGLSPELQKKVKEVLELVEKAKTASLEERLDLVVEAAKLLNEILKNPELTPEQKDLAAEALDLASELAWLLFEKEEEE
# B8: GBRAP_52_6029 (protein)
# chain: MRAELQAKVDEILALVKAGKLEEAAKAAKELVASLNEEEVELLIDVIAERAAAAAPEDQDAVWQLAEIFAKALEEAGYDEVLADDLLARTAAALYEAEQR
# B9: GBRAP_160_4565 (protein)
# chain: MERVKELVEELRKDVEETLEETKDDSVENLRTALSGVIGSHAMEAAEDPRFSDEMVDILLEARDRIEAYLKEHKDASVEEIRKEVLKIVDEAGKKMLELA
# B10: GBRAP_26_5478 (protein)
# chain: IEEEVRKVLEELEKLLKELLDPELAAAALAEATTIIIEAAEKMEENKNDEEKLKEIVKEAVEELRRELETLGVSEEKREQIVEKAREGLERIAKKILEES
# B11: GBRAP_128_3447 (protein)
# chain: SMEEREERAKKVAKEFEEKLKEGPEAAAEFFIEEVEKADLEEVELITEAVVEVLRTLDNETAEKVVDLILKLSERLSPEKRAIVAVILSPLIFELVEKEE
# B12: GBRAP_128_3423 (protein)
# chain: MSEEKVKEAKKLLEEMLTADKEEAKKLAEELAELFLESDLETAEKIAEVIKEMLPKFTAEHLEILADALEKALPKLTPEKANVAADVIVDLLNEAEELEE
# B13: GBRAP_43_5742 (protein)
# chain: SKELVEGALDFTKLLAEDPEIDEETKLKAFIDTLRLIADEKVKAKEELVEAAKALAKSLSEENVKKAIAEIDRLAKENPEVKETFEAARKALLEELEKRK
# B14: GBRAP_122_2942 (protein)
# chain: DPTEERLAALIARIVAALDAGDAAALAAAADELVRLFETVTPEQARAAAERLLEAVADDEEKLEAALQAMLAAFERHQPLTPAQEVAADIFAEAFDELSE
# B15: GBRAP_78_6662 (protein)
# chain: EIEELIDKALEEISKAARLTKELPEEDRNEVLGLLVDAASDLVEAEEEGGNLELLKEALKSLKEAIKLLKELKTPEAEKVLKEVEEAKKYVEEAIKLKEK
# B16: GBRAP_160_4804 (protein)
# chain: MEKVEKLLEEARKDLLDTAEAAADLPVEDLAALLRAEGYTEILELEEELGLSDETVEELDKVVDDMVATLLANPDLTPEQVRALVEEAAERIEEIVLKEA
# B17: GBRAP_128_3547 (protein)
# chain: SLEEARERAREAVERIKASDVETAYEITVELLEELKTWSLEEVEAAVEELEKRLPELSAEKLEAVADAIEETRGEHSPEKQELLAGVEVDALNLAEEQEE
# B18: GBRAP_78_6607 (protein)
# chain: ETKEKIKKLLEEAERLMRQIAEIQPEVADQANEAAVAVGTALLAVETGEESKEEIKELVEEALKIAEELLKLLEGKSPEAQKLAEEAIKKLEEALKLLKE
# B19: GBRAP_83_6969 (protein)
# chain: MEKVDVVTTPDHVEEAADAARDLAEEEGYEVTVVLVGKPEEVLESAKIVAEKLKDLPNVSIEAAVENVRKEEAEKTKKELEEIGKKYGLKVEFHAELIEE
# B20: GBRAP_52_6235 (protein)
# chain: MRERMRRLAREIVELVLEGREEEARRLAREVAETLDDEELRILVEEFARLAEEAAPEDLDAVWRAVEIVAEALEEAGRPEILADDLESRTAAAIVKVEAK
# B21: GBRAP_35_5504 (protein)
# chain: SSMSTEADMLVATIEDLVLAIPDLPVEQATAIAESLIRSAEELAEDLEDDAENLERLKEAMKALLEALKKHYGDDPLAQEVAKRIEELIEKLEEKLKKAK
# B22: GBRAP_160_4497 (protein)
# chain: SERKERAKERARELVEEAAEAIREEEGEGKEQIARAYAGDIALELLELGVVSEEQEEEVLRLAEEGFRRMVEASEKGEEELERAAEELKRRLEELIEEFA
# B23: GBRAP_128_3503 (protein)
# chain: SLEEAVERVRELMRRIGEAGPEEARELVRELAALLASADRETAEAIAEAAIEELPKLNREALLVVADTLRELLPSLDPYKANLVADIQVEALNLALEKEE
# B24: GBRAP_160_4135 (protein)
# chain: SEELEKLIKEIKEIGEEALEMIEGETPENAKVIARVALGDIVMLVESNDAISEETEDEIGKIADEAEATLKANPDLTVEEIKALLKEATEKVVEIIEKEK
# B25: GBRAP_80_6825 (protein)
# chain: MEERLEKVLEEIEKIDKEIAEIVREIVELARALGVPLEVLLRYAEAILELAKKDKEKALELAKRTLEEVRELAARGDREGVLAVLAEAESDALLEVEELE
# B26: GBRAP_26_5439 (protein)
# chain: IEEVEREAIERIAEVAAKIGDPEKAAAALAEAITLLHEFVERAEEEDLSEEELEELAEELVEELREFLEDLGLSEELRRELVETFREALRRIREALLKER
# B27: GBRAP_74_6519 (protein)
# chain: EEELLAALEAAAAAGDAATAVALARRIVAEGSLEAVERAARIMVAFVERHADALSPEELEAVADALAELADELMLRGGDSEVVLAVARAAVALEERRRAL
# B28: GBRAP_35_5621 (protein)
# chain: GSAEEVLEDALDVLEDAVEALETEDKKTMAEALVKVAEAFVEIAEEEKDEVEKAPEYLKKAIELLERALEILKKYPELEEYAKRVEELKKRLEKLLKELK
# B29: GBRAP_52_6260 (protein)
# chain: MRERLRALVEEILELVKAGRLEEARALATELAETFNEEELEIFIEEAAELARRSSKEEVEDLIRMAELVAEALEEAGRPEELVSLFEARVYGAIYETEKR
# Molecular target: GABARAP, O95166
# Assay: median log2 fold change of GCK-ALFA target abundance (FLAG IP / Myc IP barcode read proportion) (log2 ratio); each designed protein is fused to an ALFA-tag nanobody in HEK293 cells to bring the named protein to FLAG-tagged glucokinase (GCK); Myc marks an untargeted standard; higher = target protein stabilised (more abundant)
# Details: target protein: 3xFLAG-MCP-GCK-ALFA reporter; HEK293 landing pad (RPLP)
# Procedure, shortened: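 An ALFA-nanobody-fused binder library was recombined into HEK293 landing-pad cells and induced with 2 μg mL^−1 doxycycline. Cells were transfected with a plasmid expressing a FLAG-tagged target and a Myc-tagged standard. After 48 h, lysates underwent anti-FLAG and anti-Myc immunoprecipitation, and circular RNA barcodes were reverse transcribed, amplified and sequenced. Target abundance is the per-binder median log2 ratio of FLAG to Myc barcode read proportions. Barcodes needed ≥10^−7 proportion in both replicates, binders ≥3 barcodes per replicate, and a 10^−6 pseudocount was added; the two replicates were pooled.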
# Sequence of GABARAP, O95166 (O95166 whole entry, the tested form may be a part): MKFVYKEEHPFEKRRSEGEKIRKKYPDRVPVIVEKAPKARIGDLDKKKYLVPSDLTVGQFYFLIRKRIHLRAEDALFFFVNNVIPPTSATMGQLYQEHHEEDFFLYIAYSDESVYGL
row,Binder,median log2 fold change
1,B1,0.0742
2,B2,0.239
3,B3,0.302
4,B4,-0.524
5,B5,0.253
6,B6,-0.109
7,B7,-0.0828
8,B8,0.155
9,B9,0.289
10,B10,0.182
11,B11,0.0217
12,B12,0.132
13,B13,0.112
14,B14,0.188
15,B15,0.00267
16,B16,-0.129
17,B17,-0.126
18,B18,0.241
19,B19,0.0336
20,B20,-0.0495
21,B21,-0.0789
22,B22,0.292
23,B23,0.0815
24,B24,-0.387
25,B25,0.188
26,B26,-0.364
27,B27,-0.0734
28,B28,-0.0306
29,B29,-0.0461
